# Laboratory results as given in the supplement of paper PMC8728848.
# This is one part of the list.
# B1: LecB PA14 (Pseudomonas aeruginosa) (protein)
# chain: MATQGVFTLPANTQFGVTAFANSAGTQTVNVQVNNETVATFTGQSTNNAIIGSKVLNSGGGGKVQILVSVNGRSSDLVSAQVILANELNFALVGSEDSTDNDYNDAVVVINWPLG
# Experiments:
# Assay in all cases: glycan array binding signal (z-score within array); higher = stronger binding
# Conditions in all cases: glycan notation: IUPAC condensed, linker removed
# Neu5Ac(a2-3)GalNAc = biological target: Neu5Ac(a2-3)GalNAc
# In short: (§1)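 Glycan array data were curated from 3228 arrays in the Consortium for Functional Glycomics database and kept only where the protein sequence was available. Glycan names were converted to IUPAC-condensed notation, and columns mapping to the same glycan were averaged. The binding signal is a within-array Z-score, averaged across arrays of the same protein sequence at different concentrations or buffers and across linkers. Negative Z-scores can be read as non-binding.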
# [1] = biological target: Neu5Ac(a2-3)GalNAc(b1-4)GlcNAc
# In short: as §1
# [2] = biological target: Neu5Ac(a2-3)[GalNAc(b1-4)]Gal(b1-4)Glc
# In short: as §1
# [3] = biological target: Neu5Ac(a2-3)[GalNAc(b1-4)]Gal(b1-4)GlcNAc
# In short: as §1
# [4] = biological target: Neu5Ac(a2-3)[GalNAc(b1-4)]Gal(b1-4)GlcNAc(b1-3)GalNAc
# In short: as §1
# [5] = biological target: Neu5Ac(a2-3)[Neu5Ac(a2-6)]GalNAc
# In short: as §1
# Neu5Ac(a2-6)Gal = biological target: Neu5Ac(a2-6)Gal
# In short: as §1
# [6] = biological target: Neu5Ac(a2-6)Gal(b1-3)GlcNAc(b1-3)[Gal(b1-4)GlcNAc(b1-6)]Gal(b1-4)Glc
# In short: as §1
# Neu5Ac(a2-6)Gal(b1-4)Glc = biological target: Neu5Ac(a2-6)Gal(b1-4)Glc
# In short: as §1
# [7] = biological target: Neu5Ac(a2-6)Gal(b1-4)GlcNAc
# In short: as §1
# [8] = biological target: Neu5Ac(a2-6)Gal(b1-4)GlcNAc(b1-2)Man
# In short: as §1
# [9] = biological target: Neu5Ac(a2-6)Gal(b1-4)GlcNAc(b1-2)Man(a1-3)Man(b1-4)GlcNAc(b1-4)GlcNAc
# In short: as §1
# [10] = biological target: Neu5Ac(a2-6)Gal(b1-4)GlcNAc(b1-2)Man(a1-3)[Gal(b1-4)GlcNAc(b1-2)Man(a1-6)]Man(b1-4)GlcNAc(b1-4)GlcNAc
# In short: as §1
# [11] = biological target: Neu5Ac(a2-6)Gal(b1-4)GlcNAc(b1-2)Man(a1-3)[GlcNAc(b1-4)][Neu5Ac(a2-6)Gal(b1-4)GlcNAc(b1-2)Man(a1-6)]Man(b1-4)GlcNAc(b1-4)GlcNAc
# In short: as §1
# [12] = biological target: Neu5Ac(a2-6)Gal(b1-4)GlcNAc(b1-2)Man(a1-3)[Man(a1-6)]Man(b1-4)GlcNAc(b1-4)GlcNAc
# In short: as §1
# [13] = biological target: Neu5Ac(a2-6)Gal(b1-4)GlcNAc(b1-2)Man(a1-3)[Neu5Ac(a2-3)Gal(b1-4)GlcNAc(b1-2)Man(a1-6)]Man(b1-4)GlcNAc(b1-4)GlcNAc
# In short: as §1
# [14] = biological target: Neu5Ac(a2-6)Gal(b1-4)GlcNAc(b1-2)Man(a1-3)[Neu5Ac(a2-6)Gal(b1-4)GlcNAc(b1-2)Man(a1-6)]Man(b1-4)GlcNAc(b1-4)GlcNAc
# In short: as §1
# [15] = biological target: Neu5Ac(a2-6)Gal(b1-4)GlcNAc(b1-2)Man(a1-3)[Neu5Ac(a2-6)Gal(b1-4)GlcNAc(b1-2)Man(a1-6)]Man(b1-4)GlcNAc(b1-4)[Fuc(a1-6)]GlcNAc
# In short: as §1
# [16] = biological target: Neu5Ac(a2-6)Gal(b1-4)GlcNAc(b1-2)Man(a1-6)Man(b1-4)GlcNAc(b1-4)GlcNAc
# In short: as §1
# [17] = biological target: Neu5Ac(a2-6)Gal(b1-4)GlcNAc(b1-2)Man(a1-6)[Gal(b1-4)GlcNAc(b1-2)Man(a1-3)]Man(b1-4)GlcNAc(b1-4)GlcNAc
# In short: as §1
# [18] = biological target: Neu5Ac(a2-6)Gal(b1-4)GlcNAc(b1-2)Man(a1-6)[GlcNAc(b1-2)Man(a1-3)]Man(b1-4)GlcNAc(b1-4)GlcNAc
# In short: as §1
# [19] = biological target: Neu5Ac(a2-6)Gal(b1-4)GlcNAc(b1-2)Man(a1-6)[Man(a1-3)]Man(b1-4)GlcNAc(b1-4)GlcNAc
# In short: as §1
# [20] = biological target: Neu5Ac(a2-6)Gal(b1-4)GlcNAc(b1-2)[Neu5Ac(a2-6)Gal(b1-4)GlcNAc(b1-4)]Man(a1-3)[GlcNAc(b1-4)][Neu5Ac(a2-6)Gal(b1-4)GlcNAc(b1-2)[Neu5Ac(a2-6)Gal(b1-4)GlcNAc(b1-6)]Man(a1-6)]Man(b1-4)GlcNAc(b1-4)GlcNAc
# In short: as §1
# [21] = biological target: Neu5Ac(a2-6)Gal(b1-4)GlcNAc(b1-2)[Neu5Ac(a2-6)Gal(b1-4)GlcNAc(b1-4)]Man(a1-3)[GlcNAc(b1-4)][Neu5Ac(a2-6)Gal(b1-4)GlcNAc(b1-4)Man(a1-6)]Man(b1-4)GlcNAc(b1-4)GlcNAc
# In short: as §1
# [22] = biological target: Neu5Ac(a2-6)Gal(b1-4)GlcNAc(b1-2)[Neu5Ac(a2-6)Gal(b1-4)GlcNAc(b1-6)]Man(a1-6)[Neu5Ac(a2-6)Gal(b1-4)GlcNAc(b1-2)Man(a1-3)][GlcNAc(b1-4)]Man(b1-4)GlcNAc(b1-4)GlcNAc
# In short: as §1
# [23] = biological target: Neu5Ac(a2-6)Gal(b1-4)GlcNAc(b1-3)Gal(b1-3)GlcNAc
# In short: as §1
# [24] = biological target: Neu5Ac(a2-6)Gal(b1-4)GlcNAc(b1-3)Gal(b1-4)GlcNAc
# In short: as §1
# [25] = biological target: Neu5Ac(a2-6)Gal(b1-4)GlcNAc(b1-3)Gal(b1-4)GlcNAc(b1-2)Man(a1-3)[Neu5Ac(a2-6)Gal(b1-4)GlcNAc(b1-3)Gal(b1-4)GlcNAc(b1-2)Man(a1-6)]GalNAc
# In short: as §1
# [26] = biological target: Neu5Ac(a2-6)Gal(b1-4)GlcNAc(b1-3)Gal(b1-4)GlcNAc(b1-3)Gal(b1-4)GlcNAc
# In short: as §1
# [27] = biological target: Neu5Ac(a2-6)Gal(b1-4)GlcNAc(b1-3)Gal(b1-4)GlcNAc(b1-3)Gal(b1-4)GlcNAc(b1-2)Man(a1-3)[Neu5Ac(a2-6)Gal(b1-4)GlcNAc(b1-3)Gal(b1-4)GlcNAc(b1-3)Gal(b1-4)GlcNAc(b1-2)Man(a1-6)]GalNAc
# In short: as §1
# [28] = biological target: Neu5Ac(a2-6)Gal(b1-4)GlcNAc(b1-3)Gal(b1-4)GlcNAc(b1-3)GalNAc
# In short: as §1
# [29] = biological target: Neu5Ac(a2-6)Gal(b1-4)GlcNAc(b1-3)Gal(b1-4)GlcNAc(b1-3)[Neu5Ac(a2-6)Gal(b1-4)GlcNAc(b1-3)Gal(b1-4)GlcNAc(b1-6)]GalNAc
# In short: as §1
# [30] = biological target: Neu5Ac(a2-6)Gal(b1-4)GlcNAc(b1-3)Gal(b1-4)GlcNAc(b1-6)[Gal(b1-3)]GalNAc
# In short: as §1
# [31] = biological target: Neu5Ac(a2-6)Gal(b1-4)GlcNAc(b1-3)Gal(b1-4)[Fuc(a1-3)]GlcNAc(b1-3)Gal(b1-4)[Fuc(a1-3)]GlcNAc
# In short: as §1
# [32] = biological target: Neu5Ac(a2-6)Gal(b1-4)GlcNAc(b1-3)GalNAc
# In short: as §1
# [33] = biological target: Neu5Ac(a2-6)Gal(b1-4)GlcNAc(b1-3)[Neu5Ac(a2-6)Gal(b1-4)GlcNAc(b1-6)]GalNAc
# In short: as §1
# [34] = biological target: Neu5Ac(a2-6)Gal(b1-4)GlcNAc(b1-6)GalNAc
# In short: as §1
# [35] = biological target: Neu5Ac(a2-6)Gal(b1-4)GlcNAc(b1-6)[Gal(b1-3)GlcNAc(b1-3)]Gal(b1-4)Glc
# In short: as §1
# [36] = biological target: Neu5Ac(a2-6)Gal(b1-4)GlcNAc(b1-6)[Gal(b1-3)]GalNAc
# In short: as §1
# [37] = biological target: Neu5Ac(a2-6)Gal(b1-4)GlcNAc6S
# In short: as §1
# Neu5Ac(a2-6)GalNAc = biological target: Neu5Ac(a2-6)GalNAc
# In short: as §1
# [38] = biological target: Neu5Ac(a2-6)GalNAc(b1-4)GlcNAc
# In short: as §1
# [39] = biological target: Neu5Ac(a2-6)GalNAc(b1-4)GlcNAc6S
# In short: as §1
# [40] = biological target: Neu5Ac(a2-6)GlcNAc(b1-4)GlcNAc
# In short: as §1
# [41] = biological target: Neu5Ac(a2-6)GlcNAc(b1-4)GlcNAc(b1-4)GlcNAc
# In short: as §1
binder,measurement,setting,value
B1,glycan array binding signal (z-score),Neu5Ac(a2-3)GalNAc,-0.37
same,glycan array binding signal (z-score),[1],-0.298
same,glycan array binding signal (z-score),[2],-0.699
same,glycan array binding signal (z-score),[3],-0.48
same,glycan array binding signal (z-score),[4],-0.357
same,glycan array binding signal (z-score),[5],0.133
same,glycan array binding signal (z-score),Neu5Ac(a2-6)Gal,-0.036
same,glycan array binding signal (z-score),[6],0.253
same,glycan array binding signal (z-score),Neu5Ac(a2-6)Gal(b1-4)Glc,-0.433
same,glycan array binding signal (z-score),[7],-0.39
same,glycan array binding signal (z-score),[8],-0.962
same,glycan array binding signal (z-score),[9],0.474
same,glycan array binding signal (z-score),[10],0.203
same,glycan array binding signal (z-score),[11],-0.346
same,glycan array binding signal (z-score),[12],-0.527
same,glycan array binding signal (z-score),[13],-0.741
same,glycan array binding signal (z-score),[14],-0.058
same,glycan array binding signal (z-score),[15],0.382
same,glycan array binding signal (z-score),[16],-0.246
same,glycan array binding signal (z-score),[17],-0.666
same,glycan array binding signal (z-score),[18],0.251
same,glycan array binding signal (z-score),[19],-0.268
same,glycan array binding signal (z-score),[20],0.347
same,glycan array binding signal (z-score),[21],0.321
same,glycan array binding signal (z-score),[22],-0.414
same,glycan array binding signal (z-score),[23],-0.465
same,glycan array binding signal (z-score),[24],-0.861
same,glycan array binding signal (z-score),[25],-0.772
same,glycan array binding signal (z-score),[26],-0.744
same,glycan array binding signal (z-score),[27],1.06
same,glycan array binding signal (z-score),[28],-0.543
same,glycan array binding signal (z-score),[29],-0.64
same,glycan array binding signal (z-score),[30],-0.255
same,glycan array binding signal (z-score),[31],1.38
same,glycan array binding signal (z-score),[32],-0.278
same,glycan array binding signal (z-score),[33],-0.594
same,glycan array binding signal (z-score),[34],-0.193
same,glycan array binding signal (z-score),[35],-0.503
same,glycan array binding signal (z-score),[36],0.002
same,glycan array binding signal (z-score),[37],-0.614
same,glycan array binding signal (z-score),Neu5Ac(a2-6)GalNAc,-0.019
same,glycan array binding signal (z-score),[38],-0.082
same,glycan array binding signal (z-score),[39],0.024
same,glycan array binding signal (z-score),[40],-0.109
same,glycan array binding signal (z-score),[41],-0.669
